# Measured values as given in PubChem BioAssay AID624296 (National Center for Advancing Translational Sciences (NCATS), 2012).
# The campaign covered roughly 350,000 compounds. About 9,900 (2.8%) were called active. This list was built around the results that the source calls inconclusive (neither active nor inactive); the mix of calls is not that of the screen. The call rests on the fitted dose curve; in most records, active means well fitted activation curve with a large enough effect; inconclusive means small, poorly fitted or top-dose-only effect; inactive means no such curve, though single readings can be large or run the other way. No potency is given beside an inconclusive call; the fits are too rough.
# Assay: A quantitative high throughput screen for small molecules that induce DNA re-replication in MCF 10a normal breast cells. Further: nearly all actives have a fitted effect of over 50% in size. On activity, positive = re-replication: % of control where 0% means no effect.
# Details: MCF 10A DNA re-replication, Hoechst nuclear intensity, 48 h; activity, positive = re-replication: at 46.1 µM (top of the series)
# Potency means the concentration at half of the fitted maximal effect; tags describe the fitted curve by direction and shape.
SMILES,"activity, positive = re-replication",Potency
CCC(=O)Nc1ccc(NC(=O)c2ccco2)c(OC)c1,inactive: 10.3% [at 9.22 µM],–
Cc1ccc(OCCOc2ccc(Br)cc2)c([N+](=O)[O-])n1,–,"inconclusive [activator, single point]"
CC1CCCN(S(=O)(=O)c2cccc(C(=O)OCC(=O)N(C)Cc3c(F)cccc3Cl)c2)C1 (stereo not given),–,inactive
COc1ccc(-c2nnnn2-c2ccccc2OC)cc1,–,"inconclusive [activator, single point]"
c1ccc(-c2ccc(C3=Nn4c(nnc4-c4cc(-c5ccccc5)n[nH]4)SC3)cc2)cc1,–,active: 14.6 µM
COC(=O)c1sccc1NC(=O)Nc1cccc(F)c1,–,inactive
CC(=O)N1c2ccc(C)cc2Sc2c1ccc1ccccc21,–,active: 20.6 µM
COc1ccc(OC)c(N(CC(=O)O)S(=O)(=O)c2ccc(OC)c(OC)c2)c1,–,"inconclusive [activator, partial curve, poor fit]"
Clc1cccc(Nc2nc(-c3ccncc3)cs2)c1,–,"inconclusive [activator, single point]"
Cc1[nH]n(-c2ncc(-c3ccc(Cl)cc3)s2)c(=O)c1C(c1ccc(Cl)cc1)C(C#N)C#N (stereo not given),–,"inconclusive [activator, single point]"
O=C(CSc1nnc(-c2ccc(Br)cc2)o1)Nc1cccc2ccccc12,–,"inconclusive [activator, single point]"
COc1ccc(-c2cnc3ccccc3n2)cc1NC(=O)CNC(=O)c1ccccc1,–,"inconclusive [activator, single point]"
COc1ccc(C(=O)c2c(C)c3ccccc3n2CC(O)CNC(C)C)cc1 (stereo not given),–,inactive
CC(=O)c1ccc(OC(C)C)c(Cc2c(O)nc(N)[nH]c2=O)c1,–,inactive
Clc1ccc(Cn2c(-c3cccnc3Cl)nc3ccccc32)c(Cl)c1,–,active: 16.4 µM
Cc1nc(N2CCCCC2)c2c(C)c(C(=O)Nc3cccc(C(F)(F)F)c3)sc2n1,–,active: 18.4 µM
CCCN(CCC)C(=S)Nc1cc(C(=O)OC)ccc1C(=O)OC,–,"inconclusive [activator, partial curve, poor fit]"
CCc1ccc(OCCNc2cc(N3CCNC(C)C3)ccc2[N+](=O)[O-])cc1 (stereo not given),–,"inconclusive [activator, single point]"
Cc1ccc(N2C(=O)N(CC(=O)Nc3cccc(Cl)c3)C(=O)C2C)cc1 (stereo not given),–,inactive
Cc1n[nH]c(=O)c2c(NC(=O)COC(=O)Cc3c(F)cccc3Cl)oc(C)c12,–,inactive
O=C(CP(=O)(c1ccccc1)c1ccccc1)N/N=C/c1cc(Br)cc(Br)c1O,–,active: 5.8 µM
CCN(CC(=O)Nc1c(F)cccc1F)C(=O)c1ccc(S(=O)(=O)N2CCCCCC2)cc1,–,inactive
Cc1oc2c(C)c3oc(=O)c(CCC(=O)NCCCCCC(=O)O)c(C)c3cc2c1C,–,inactive
COc1ccc(C2CC(C(C)(C)C)=NN2c2ccc(S(N)(=O)=O)cc2)cc1 (stereo not given),–,inactive

SMILES,"activity, positive = re-replication",Potency
Cc1ccc(C(C(=O)NCc2ccccc2)N(Cc2ccco2)C(=O)c2snc(C(N)=O)c2N)o1 (stereo not given),–,"inconclusive [activator, partial curve]"
CCCN(Cc1nnc(-c2ccccc2Cl)o1)C(=O)c1cc2ccccc2o1,–,"inconclusive [activator, single point]"
O=C(O)/C=C/C(=O)Nc1ccccc1-c1ccccc1NC(=O)/C=C/C(=O)O,–,inactive
COc1ccc2c(c1OC)C(=O)OC2Nc1nc(-c2ccccc2)cs1 (stereo not given),–,active: 4.61 µM
COC(=O)c1ccccc1NC(=O)C1COc2ccccc2O1 (stereo not given),–,"inconclusive [activator, partial curve, poor fit]"
Cc1ccc(C)c(S(=O)(=O)N2CCN(C(C)C(=O)Nc3ccccc3-c3ccccc3)CC2)c1 (stereo not given),–,"inconclusive [activator, partial curve]"
COc1ccc(/C=C/c2c(-c3ccc(OC)cc3)oc3ccc(-c4ccc(OC)cc4)cc23)cc1,–,"inconclusive [activator, single point]"
O=C(c1ccc(CN2CCc3ccccc3C2)cc1)N1CCc2ccccc2C1,–,inactive
C=CCn1cccc(C(=O)Nc2ccc(N(C)C)cc2)c1=O,–,inactive
Cc1cc(C)n(-c2cc(N3CCN(S(=O)(=O)c4ccc(Cl)cc4)CC3)ccc2[N+](=O)[O-])n1,–,inactive
CCn1ncc(/C=N/NC(=O)c2cc(Cl)ccc2OC)c1C,–,"inconclusive [activator, single point]"
CC(C)C(=O)N=c1sc2cccc(F)c2n1C,–,"inconclusive [activator, single point]"
C[C@@H](NC(=O)c1[nH]cnc1C(=O)Nc1cccc(Cl)c1)c1ccccc1,–,active: 11.6 µM
Cc1ccccc1C(=O)NC1CCN(Cc2nnnn2Cc2ccc(F)cc2)CC1,–,inactive
Clc1ccccc1-c1nnc2sc(-c3ccc(Br)o3)nn12,–,"inconclusive [activator, single point]"
CCN(CC(=O)NCc1cccs1)C(=O)c1cc(Br)ccc1O,–,inactive
COc1cccc(N/C(N)=N/c2nc(C(F)(F)F)cc(=O)[nH]2)c1,–,"inconclusive [activator, single point]"
OC(COc1ccc(Cl)c2ccccc12)CN1CCN(c2ccccn2)CC1 (stereo not given),–,"inconclusive [activator, single point]"
CN(C)c1ccc(N=Nc2ccccc2C(=O)OCC(=O)N2CCCCCC2)cc1,–,"inconclusive [activator, partial curve, poor fit]"
C=CCOC(=O)C1=C(C)NC(SCC(=O)Nc2nccs2)=C(C#N)C1c1ccc(Cl)cc1 (stereo not given),–,active: 1 µM
Cc1nc(/C(N)=N/OC(=O)c2c(-c3ccccc3Cl)noc2C)cs1,–,"inconclusive [activator, single point]"
CCCc1n[nH]c(=O)c2c1nnn2Cc1ccccc1,–,inactive
COC(=O)c1ccc(CNC(=O)c2ccc3oc(C(C)C)nc3c2)cc1,–,"inconclusive [activator, single point]"
O=C(NCCc1c[nH]c2ccccc12)C(=O)Nc1cc2c3c(c1)CC(=O)N3CCC2,–,"inconclusive [activator, partial curve, poor fit]"

SMILES,"activity, positive = re-replication",Potency
Cc1ccc(CNC(=O)CCn2nc(-c3ccc(Cl)cc3)ccc2=O)cc1,–,inactive
O=C1c2ccccc2NC(c2cccc(F)c2)N1Cc1ccco1 (stereo not given),–,"inconclusive [activator, partial curve, poor fit]"
COc1ccc(N2CCN(Cc3cc(=O)oc4ccc(C)cc34)CC2)cc1,–,"inconclusive [activator, partial curve, poor fit]"
CC(C)c1ccccc1NC(=O)C1CC(=O)N(C2CCCC2)C1 (stereo not given),–,inactive
C(=C\c1ccccc1)/CN1CCN(C(c2ccccc2)c2ccccc2)CC1,–,"inconclusive [activator, full curve, poor fit]"
CC(C)C[C@H](NC(=O)c1nc[nH]c1C(=O)N[C@@H](CC(C)C)C(=O)OC(C)(C)C)C(=O)OCc1ccccc1,–,"inconclusive [activator, single point]"
Cc1ccc(C(C)(C)C)c(OCCCn2ccnc2)c1,–,"inconclusive [activator, single point]"
CN(CC(=O)Nc1ccc(Cl)cc1)C(=O)c1cccc(S(=O)(=O)N2CCN(Cc3ccccc3)CC2)c1,–,"inconclusive [activator, partial curve, poor fit]"
COc1cc2c(cc1OC)/C(=C/c1ccc(Br)cc1)C(=O)OC2,–,"inconclusive [activator, partial curve, poor fit]"
Cc1ccc(S(=O)(=O)N2CCC(n3nnc4cc(C)ccc43)CC2)cc1,–,inactive
CC1CCc2nc(/C(C#N)=C/c3ccncc3)sc2C1 (stereo not given),–,"inconclusive [activator, single point]"
O=S(=O)(Nc1ccc(Br)cc1)c1cccc(NS(=O)(=O)c2cccs2)c1,–,active: 7.31 µM
COc1ccc(/C=N/NC(=O)c2cc3c(ccc4ccccc43)o2)c(OC)c1,–,"inconclusive [activator, full curve, poor fit]"
CCNc1nc(NCC)n2c(SC(C(=O)Nc3cc(Cl)cc(Cl)c3)c3ccccc3)nnc2n1 (stereo not given),–,"inconclusive [activator, single point]"
C=CC[C@H]1CC(C)=C[C@H](CC=C)N1C(=O)c1cc(COc2ccccc2SC)on1,–,"inconclusive [activator, partial curve]"
COCCCNC(=S)Nc1c(C)cc(C)cc1C,–,"inconclusive [activator, partial curve, poor fit]"
NNc1nc2cccnc2n(CCNc2ncc(C(F)(F)F)cc2Cl)c1=O,–,active: 20.6 µM
Cc1noc(C)c1COc1ccc(CC(=O)NCCc2ccccn2)cc1,–,inactive
O=C(CN1C(=O)NC2(CCCCCC2)C1=O)c1ccc(OC(F)F)cc1OC(F)F,–,"inconclusive [activator, partial curve, poor fit]"
CCC(C)NC(=S)Nc1ccc2nc(N3CCN(CC)CC3)cc(C)c2c1 (stereo not given),–,"inconclusive [activator, full curve]"
O=C(NCCc1ccccc1)c1c(F)c(F)c(F)c(F)c1F,–,"inconclusive [activator, single point]"
O=C(Cn1ncc2c(=O)oc3ccccc3c21)NC1CC1,–,"inconclusive [activator, single point]"
